Test results taken from publication PMC4468608, “A distinct p53 target gene set predicts for response to the selective p53–HDM2 inhibitor NVP-CGM097” (eLife, 2015).
The source gives many values for each of these; only a part stands here.

Tested on: cell lines from the Cancer Cell Line Encyclopedia (CCLE)
Assay: High-throughput cell viability assay, CCLE cell line panel (n = 356)
Type: cell-based, human
Protocol: Cell lines were partitioned into sensitive and insensitive groups based on compound potency (IC50). […] All other cell lines were obtained from ATCC (American Type Culture Collection), DSMZ (Deutsche Sammlung von Mikroorganismen und Zellkulturen), and HSRRB (Health Science Research Resources Bank) and cultured in RPMI or Dulbecco's modified Eagle's medium plus 10% FBS (Invitrogen, Carlsbad, CA) at 37°C, 5% CO2.

COc1cc2c(cc1OC(C)C)[C@H](c1ccc(Cl)cc1)N(c1ccc(N(C)C[C@H]3CC[C@H](N4CCNC(=O)C4)CC3)cc1)C(=O)C2 [NVP-CFC218]
Amax (8-MG-BA, TP53 MUT): -29.68% | sensitivity call (8-MG-BA, TP53 MUT): insensitive (Sensitivity call for each compound was applied according to a cut-off of 4 µM for IC50 and -50% for Amax) | Amax (769-P, TP53 WT): -72.79% | sensitivity call (769-P, TP53 WT): sensitive (Sensitivity call for each compound was applied according to a cut-off of 4 µM for IC50 and -50% for Amax) | Amax (786-O, TP53 MUT): -27.93% | sensitivity call (786-O, TP53 MUT): insensitive (Sensitivity call for each compound was applied according to a cut-off of 4 µM for IC50 and -50% for Amax) | Amax (5637, TP53 MUT): 0.50% | sensitivity call (5637, TP53 MUT): insensitive (Sensitivity call for each compound was applied according to a cut-off of 4 µM for IC50 and -50% for Amax) | Amax (A2780, TP53 WT): -77.43% | sensitivity call (A2780, TP53 WT): sensitive (Sensitivity call for each compound was applied according to a cut-off of 4 µM for IC50 and -50% for Amax) | Amax (A-204, TP53 WT): -58.99% | sensitivity call (A-204, TP53 WT): sensitive (Sensitivity call for each compound was applied according to a cut-off of 4 µM for IC50 and -50% for Amax) | Amax (A-375, TP53 WT): -70.39% | sensitivity call (A-375, TP53 WT): sensitive (Sensitivity call for each compound was applied according to a cut-off of 4 µM for IC50 and -50% for Amax) | Amax (ACHN, TP53 WT): -65.30% | sensitivity call (ACHN, TP53 WT): sensitive (Sensitivity call for each compound was applied according to a cut-off of 4 µM for IC50 and -50% for Amax) | Amax (AMO-1, TP53 WT): -96.94% | sensitivity call (AMO-1, TP53 WT): sensitive (Sensitivity call for each compound was applied according to a cut-off of 4 µM for IC50 and -50% for Amax) | Amax (AU565, TP53 MUT): -46.46% | sensitivity call (AU565, TP53 MUT): insensitive (Sensitivity call for each compound was applied according to a cut-off of 4 µM for IC50 and -50% for Amax) | Amax (AsPC-1, TP53 MUT): -30.80% | sensitivity call (AsPC-1, TP53 MUT): insensitive (Sensitivity call for each compound was applied according to a cut-off of 4 µM for IC50 and -50% for Amax) | Amax (BDCM, TP53 WT): -93.74% | sensitivity call (BDCM, TP53 WT): sensitive (Sensitivity call for each compound was applied according to a cut-off of 4 µM for IC50 and -50% for Amax) | Amax (BHY, TP53 MUT): 1.51% | sensitivity call (BHY, TP53 MUT): insensitive (Sensitivity call for each compound was applied according to a cut-off of 4 µM for IC50 and -50% for Amax) | Amax (BICR 6, TP53 MUT): -6.74% | sensitivity call (BICR 6, TP53 MUT): insensitive (Sensitivity call for each compound was applied according to a cut-off of 4 µM for IC50 and -50% for Amax) | Amax (BL-41, TP53 MUT): -3.11% | sensitivity call (BL-41, TP53 MUT): insensitive (Sensitivity call for each compound was applied according to a cut-off of 4 µM for IC50 and -50% for Amax) | Amax (BL-70, TP53 MUT): 5.30% | sensitivity call (BL-70, TP53 MUT): insensitive (Sensitivity call for each compound was applied according to a cut-off of 4 µM for IC50 and -50% for Amax) | Amax (BT-549, TP53 MUT): -22.89% | sensitivity call (BT-549, TP53 MUT): insensitive (Sensitivity call for each compound was applied according to a cut-off of 4 µM for IC50 and -50% for Amax) | Amax (BxPC-3, TP53 MUT): 2.85% | sensitivity call (BxPC-3, TP53 MUT): insensitive (Sensitivity call for each compound was applied according to a cut-off of 4 µM for IC50 and -50% for Amax) | Amax (CAS-1, TP53 MUT): -0.16% | sensitivity call (CAS-1, TP53 MUT): insensitive (Sensitivity call for each compound was applied according to a cut-off of 4 µM for IC50 and -50% for Amax) | Amax (CFPAC-1, TP53 MUT): -38.08% | sensitivity call (CFPAC-1, TP53 MUT): insensitive (Sensitivity call for each compound was applied according to a cut-off of 4 µM for IC50 and -50% for Amax) | Amax (CMK-11-5, TP53 MUT): -25.58% | sensitivity call (CMK-11-5, TP53 MUT): insensitive (Sensitivity call for each compound was applied according to a cut-off of 4 µM for IC50 and -50% for Amax) | Amax (COLO 741, TP53 MUT): 3.97% | sensitivity call (COLO 741, TP53 MUT): insensitive (Sensitivity call for each compound was applied according to a cut-off of 4 µM for IC50 and -50% for Amax) | Amax (COLO-679, TP53 WT): -66.48% | sensitivity call (COLO-679, TP53 WT): sensitive (Sensitivity call for each compound was applied according to a cut-off of 4 µM for IC50 and -50% for Amax) | Amax (COV318, TP53 MUT): 5.06% | sensitivity call (COV318, TP53 MUT): insensitive (Sensitivity call for each compound was applied according to a cut-off of 4 µM for IC50 and -50% for Amax) | Amax (COV362, TP53 MUT): -1.49% | sensitivity call (COV362, TP53 MUT): insensitive (Sensitivity call for each compound was applied according to a cut-off of 4 µM for IC50 and -50% for Amax) | Amax (COV434, TP53 WT): -61.47% | sensitivity call (COV434, TP53 WT): insensitive (Sensitivity call for each compound was applied according to a cut-off of 4 µM for IC50 and -50% for Amax) | Amax (COV644, TP53 WT): -2.94% | sensitivity call (COV644, TP53 WT): insensitive (Sensitivity call for each compound was applied according to a cut-off of 4 µM for IC50 and -50% for Amax) | Amax (Caki-2, TP53 WT): -64.31% | sensitivity call (Caki-2, TP53 WT): sensitive (Sensitivity call for each compound was applied according to a cut-off of 4 µM for IC50 and -50% for Amax) | Amax (Calu-3, TP53 MUT): -11.07% | sensitivity call (Calu-3, TP53 MUT): insensitive (Sensitivity call for each compound was applied according to a cut-off of 4 µM for IC50 and -50% for Amax) | Amax (Calu-6, TP53 MUT): -24.41% | sensitivity call (Calu-6, TP53 MUT): insensitive (Sensitivity call for each compound was applied according to a cut-off of 4 µM for IC50 and -50% for Amax) | Amax (Caov-3, TP53 MUT): -11.01% | sensitivity call (Caov-3, TP53 MUT): insensitive (Sensitivity call for each compound was applied according to a cut-off of 4 µM for IC50 and -50% for Amax) | Amax (DB, TP53 MUT): 12.10% | sensitivity call (DB, TP53 MUT): insensitive (Sensitivity call for each compound was applied according to a cut-off of 4 µM for IC50 and -50% for Amax) | Amax (DBTRG-05MG, TP53 WT): -63.69% | sensitivity call (DBTRG-05MG, TP53 WT): sensitive (Sensitivity call for each compound was applied according to a cut-off of 4 µM for IC50 and -50% for Amax) | Amax (DEL, TP53 MUT): -20.11% | sensitivity call (DEL, TP53 MUT): insensitive (Sensitivity call for each compound was applied according to a cut-off of 4 µM for IC50 and -50% for Amax) | Amax (DK-MG, TP53 WT): -68.71% | sensitivity call (DK-MG, TP53 WT): sensitive (Sensitivity call for each compound was applied according to a cut-off of 4 µM for IC50 and -50% for Amax) | Amax (DMS 114, TP53 MUT): 0.74% | sensitivity call (DMS 114, TP53 MUT): insensitive (Sensitivity call for each compound was applied according to a cut-off of 4 µM for IC50 and -50% for Amax) | Amax (DOHH-2, TP53 WT): -93.70% | sensitivity call (DOHH-2, TP53 WT): sensitive (Sensitivity call for each compound was applied according to a cut-off of 4 µM for IC50 and -50% for Amax) | Amax (Detroit 562, TP53 MUT): -3.06% | sensitivity call (Detroit 562, TP53 MUT): insensitive (Sensitivity call for each compound was applied according to a cut-off of 4 µM for IC50 and -50% for Amax) | Amax (EBC-1, TP53 MUT): -0.69% | sensitivity call (EBC-1, TP53 MUT): insensitive (Sensitivity call for each compound was applied according to a cut-off of 4 µM for IC50 and -50% for Amax) | Amax (EFM-19, TP53 MUT): -9.07% | sensitivity call (EFM-19, TP53 MUT): insensitive (Sensitivity call for each compound was applied according to a cut-off of 4 µM for IC50 and -50% for Amax) | Amax (EM-2, TP53 MUT): -7.05% | sensitivity call (EM-2, TP53 MUT): insensitive (Sensitivity call for each compound was applied according to a cut-off of 4 µM for IC50 and -50% for Amax) | Amax (FU97, TP53 MUT): -1.04% | sensitivity call (FU97, TP53 MUT): insensitive (Sensitivity call for each compound was applied according to a cut-off of 4 µM for IC50 and -50% for Amax) | Amax (G-361, TP53 WT): -62.79% | sensitivity call (G-361, TP53 WT): sensitive (Sensitivity call for each compound was applied according to a cut-off of 4 µM for IC50 and -50% for Amax) | Amax (G-402, TP53 WT): -80.69% | sensitivity call (G-402, TP53 WT): sensitive (Sensitivity call for each compound was applied according to a cut-off of 4 µM for IC50 and -50% for Amax) | Amax (GCIY, TP53 MUT): -4.41% | sensitivity call (GCIY, TP53 MUT): insensitive (Sensitivity call for each compound was applied according to a cut-off of 4 µM for IC50 and -50% for Amax) | Amax (GP2d, TP53 WT): -61.10% | sensitivity call (GP2d, TP53 WT): sensitive (Sensitivity call for each compound was applied according to a cut-off of 4 µM for IC50 and -50% for Amax) | Amax (GRANTA-519, TP53 WT): -70.32% | sensitivity call (GRANTA-519, TP53 WT): sensitive (Sensitivity call for each compound was applied according to a cut-off of 4 µM for IC50 and -50% for Amax) | Amax (H4, TP53 WT): -65.09% | sensitivity call (H4, TP53 WT): sensitive (Sensitivity call for each compound was applied according to a cut-off of 4 µM for IC50 and -50% for Amax) | Amax (HARA, TP53 MUT): -1.75% | sensitivity call (HARA, TP53 MUT): insensitive (Sensitivity call for each compound was applied according to a cut-off of 4 µM for IC50 and -50% for Amax) | Amax (HCC70, TP53 MUT): -10.79%
